This is an account of results in paper PMC5700166.

Only a part is listed here, and it is no random draw. The list includes weakly bound sequences.

The target of the first assay is T1, GST-Co-NF-kB (UniProt F1ARL5).
T1 sequence: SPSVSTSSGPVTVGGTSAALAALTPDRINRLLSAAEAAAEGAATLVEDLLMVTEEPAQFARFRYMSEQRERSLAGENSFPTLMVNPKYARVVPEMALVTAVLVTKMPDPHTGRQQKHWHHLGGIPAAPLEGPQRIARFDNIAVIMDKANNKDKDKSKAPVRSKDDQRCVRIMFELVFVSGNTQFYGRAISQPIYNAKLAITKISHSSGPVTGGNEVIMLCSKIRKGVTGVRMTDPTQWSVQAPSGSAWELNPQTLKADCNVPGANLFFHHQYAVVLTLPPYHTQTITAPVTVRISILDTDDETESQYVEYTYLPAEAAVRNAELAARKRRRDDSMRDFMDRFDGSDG
Briefly: protein-binding microarray (PBM). The following applies: PBM: ~300 nM protein, 6 mM HEPES pH 7.8, 80 mM KCl, 0.5 mM EDTA, 0.5 mM EGTA, 6% glycerol, 35 ng/ul poly-dIdC, 1% milk, 1 h, room temperature; high values mean tight binding; double strand, one strand shown.
The sequence “CCGATTAACATCAATTTCCCCCGTGATGTTAATCGGGTCTTGATTCGCTTGACGCTGCTG” returned a binding signal of 12.3 z-score.

Turning to “CCGATTAACATCATCAGGGAAAATGATGTTAATCGGGTCTTGATTCGCTTGACGCTGCTG”, the binding signal came to 2.95 z-score. On the same count and under the same terms, the result for “CCGATTAACATCAGGAATTCACCTGATGTTAATCGGGTCTTGATTCGCTTGACGCTGCTG” reads -0.0751 z-score; that for “CCGATTAACATCACCTCTTTCCCTGATGTTAATCGGGTCTTGATTCGCTTGACGCTGCTG”, 3.61 z-score.

“CCGATTAACATCACGGAAGTCCCTGATGTTAATCGGGTCTTGATTCGCTTGACGCTGCTG” returned a binding signal of 0.398 z-score. Still for that read-out and setting: to “CCGATTAACATCATGGGGAAAAATGATGTTAATCGGGTCTTGATTCGCTTGACGCTGCTG” belongs 9.78 z-score; to “CCGATTAACATCAGGAACCCCCCTGATGTTAATCGGGTCTTGATTCGCTTGACGCTGCTG”, 3.38 z-score.

In another assay the target is T2, GST-Dm-Relish (UniProt Q94527).
T2 sequence: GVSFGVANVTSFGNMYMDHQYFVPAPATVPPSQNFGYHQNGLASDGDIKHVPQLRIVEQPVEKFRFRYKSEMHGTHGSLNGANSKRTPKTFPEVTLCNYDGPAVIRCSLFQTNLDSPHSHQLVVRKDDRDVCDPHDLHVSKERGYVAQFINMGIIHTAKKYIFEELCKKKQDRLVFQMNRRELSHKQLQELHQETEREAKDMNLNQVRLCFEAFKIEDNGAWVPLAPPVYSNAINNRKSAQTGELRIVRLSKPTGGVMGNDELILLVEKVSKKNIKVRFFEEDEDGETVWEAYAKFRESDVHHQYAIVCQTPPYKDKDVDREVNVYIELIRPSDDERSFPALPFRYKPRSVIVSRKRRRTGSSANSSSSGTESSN
Briefly: protein-binding microarray (PBM). The following applies: PBM: ~300 nM protein, 6 mM HEPES pH 7.8, 80 mM KCl, 0.5 mM EDTA, 0.5 mM EGTA, 6% glycerol, 35 ng/ul poly-dIdC, 1% milk, 1 h, room temperature; Ap Aiptasia and Nv Nematostella (sea anemones) / Co Capsaspora / Aq Amphimedon (sponge) / Dm Drosophila / Hu human; RHD is the Rel homology domain; high values mean tight binding; most listed sequences are background and not binding sites; double strand, one strand shown.
Sequence “CCGATTAACATCAATTCCCATCCTGATGTTAATCGGGTCTTGATTCGCTTGACGCTGCTG” yielded a binding signal of 0.575 z-score.

For the sequence “CCGATTAACATCACTATTCCCCCTGATGTTAATCGGGTCTTGATTCGCTTGACGCTGCTG”, the binding signal was 3.2 z-score. In the case of “CCGATTAACATCAAAAATTACCCTGATGTTAATCGGGTCTTGATTCGCTTGACGCTGCTG”, the binding signal worked out at 6.42 z-score.

Consider “CCGATTAACATCAGGGAAATAACTGATGTTAATCGGGTCTTGATTCGCTTGACGCTGCTG”, for which the binding signal came out at 4.51 z-score. Take “CCGATTAACATCACGGGATTTACTGATGTTAATCGGGTCTTGATTCGCTTGACGCTGCTG”: the binding signal was determined as 7.12 z-score.

The sequence “CCGATTAACATCAAGCATCCCCCTGATGTTAATCGGGTCTTGATTCGCTTGACGCTGCTG” registered a binding signal of 3.89 z-score. Same read-out and setting: the result for “CCGATTAACATCAAGGGGGGATATGATGTTAATCGGGTCTTGATTCGCTTGACGCTGCTG” reads 4.29 z-score; that for “CCGATTAACATCAGGGGAATCCATGATGTTAATCGGGTCTTGATTCGCTTGACGCTGCTG”, 9.65 z-score; that for “CCGATTAACATCAATTTCCCCCGTGATGTTAATCGGGTCTTGATTCGCTTGACGCTGCTG”, 5.65 z-score. The same measure, in the same setting: to “CCGATTAACATCAGGGGGGGTCATGATGTTAATCGGGTCTTGATTCGCTTGACGCTGCTG” belongs 3.85 z-score. On the same count and under the same terms, the result for “CCGATTAACATCATCAGGGAAAATGATGTTAATCGGGTCTTGATTCGCTTGACGCTGCTG” reads 0.679 z-score; that for “CCGATTAACATCATGATGGGAAATGATGTTAATCGGGTCTTGATTCGCTTGACGCTGCTG”, 0.809 z-score. In turn, “CCGATTAACATCACCTTGGGAAATGATGTTAATCGGGTCTTGATTCGCTTGACGCTGCTG” came in with a binding signal of 0.816 z-score. Regarding “CCGATTAACATCAGGGACAACCCTGATGTTAATCGGGTCTTGATTCGCTTGACGCTGCTG”, the binding signal was determined as 3.09 z-score. As to “CCGATTAACATCAAACAGGGAAATGATGTTAATCGGGTCTTGATTCGCTTGACGCTGCTG”, the binding signal came to 0.683 z-score. “CCGATTAACATCAGGGTATTTAATGATGTTAATCGGGTCTTGATTCGCTTGACGCTGCTG” showed a binding signal of 3.25 z-score. Take “CCGATTAACATCAAATTTCCCAATGATGTTAATCGGGTCTTGATTCGCTTGACGCTGCTG”: the binding signal came to 2.51 z-score. Regarding “CCGATTAACATCAGGAATTCACCTGATGTTAATCGGGTCTTGATTCGCTTGACGCTGCTG”, the binding signal is 6.05 z-score. For the sequence “CCGATTAACATCAGAACATTCCCTGATGTTAATCGGGTCTTGATTCGCTTGACGCTGCTG”, the binding signal came out at 1.97 z-score. “CCGATTAACATCACCTCTTTCCCTGATGTTAATCGGGTCTTGATTCGCTTGACGCTGCTG”: the binding signal was found to be 0.514 z-score.

“CCGATTAACATCAACTACCCCCCTGATGTTAATCGGGTCTTGATTCGCTTGACGCTGCTG” registered a binding signal of 3.4 z-score. Turning to “CCGATTAACATCAACTCTCCCCCTGATGTTAATCGGGTCTTGATTCGCTTGACGCTGCTG”, the binding signal was 2.14 z-score. The sequence “CCGATTAACATCACGGAAGTCCCTGATGTTAATCGGGTCTTGATTCGCTTGACGCTGCTG” had a binding signal of 6.53 z-score. The same measure, in the same setting: the result for “CCGATTAACATCAACTTTCCCAGTGATGTTAATCGGGTCTTGATTCGCTTGACGCTGCTG” reads 0.651 z-score; that for “CCGATTAACATCAGGGGCAGGGATGATGTTAATCGGGTCTTGATTCGCTTGACGCTGCTG”, 0.803 z-score; that for “CCGATTAACATCAAAAAATCCCTTGATGTTAATCGGGTCTTGATTCGCTTGACGCTGCTG”, 8.1 z-score. Regarding “CCGATTAACATCAAAAATCCCAGTGATGTTAATCGGGTCTTGATTCGCTTGACGCTGCTG”, the binding signal was 7.35 z-score. Consider “CCGATTAACATCAGCTTCCCCCCTGATGTTAATCGGGTCTTGATTCGCTTGACGCTGCTG”, for which the binding signal was determined as 4.2 z-score.

Consider “CCGATTAACATCAAACTACCCCCTGATGTTAATCGGGTCTTGATTCGCTTGACGCTGCTG”, for which the binding signal came out at 2.49 z-score. Regarding “CCGATTAACATCACTATATCCCCTGATGTTAATCGGGTCTTGATTCGCTTGACGCTGCTG”, the binding signal came to 2.01 z-score.

For the sequence “CCGATTAACATCACGGGGGTTCCTGATGTTAATCGGGTCTTGATTCGCTTGACGCTGCTG”, the binding signal came to 9.73 z-score.

Sequence “CCGATTAACATCAGGGACTACCCTGATGTTAATCGGGTCTTGATTCGCTTGACGCTGCTG” gave a binding signal of 7.1 z-score. Same read-out and setting: to “CCGATTAACATCATGGGGAAAAATGATGTTAATCGGGTCTTGATTCGCTTGACGCTGCTG” belongs 2.39 z-score. As to “CCGATTAACATCAAATTTTCCCGTGATGTTAATCGGGTCTTGATTCGCTTGACGCTGCTG”, the binding signal came to 3.36 z-score. Sequence “CCGATTAACATCAGGGGACTTCATGATGTTAATCGGGTCTTGATTCGCTTGACGCTGCTG” displayed a binding signal of 6.09 z-score.

“CCGATTAACATCAAATAGCCCCCTGATGTTAATCGGGTCTTGATTCGCTTGACGCTGCTG”: the binding signal worked out at 4.26 z-score. In turn, “CCGATTAACATCAAACTCCCCCTTGATGTTAATCGGGTCTTGATTCGCTTGACGCTGCTG” showed a binding signal of 6.54 z-score. In the case of “CCGATTAACATCAAACACCCCCCTGATGTTAATCGGGTCTTGATTCGCTTGACGCTGCTG”, the binding signal is 5.5 z-score. For “CCGATTAACATCAGGCATACCCCTGATGTTAATCGGGTCTTGATTCGCTTGACGCTGCTG”, the binding signal amounted to 1.3 z-score.

As to “CCGATTAACATCAGGAACCCCCCTGATGTTAATCGGGTCTTGATTCGCTTGACGCTGCTG”, the binding signal was 9.74 z-score.
